Reference: PubChem BioAssay AID504832 (National Center for Advancing Translational Sciences (NCATS), 2011)
About 18,000 (5.8%) of roughly 310,000 compounds were called active. Inconclusive results, whose numbers are uncertain, are shown with a selection of clear calls. Calls come from the whole dose curve; as a rule, active = well fitted inhibition curve with a large enough effect; inconclusive = small, poorly fitted or top-dose-only effect, or another doubt; inactive = no such curve, though single readings can be large or run the other way. Potencies of inconclusive entries are left out as doubtful fits.

test: Primary qHTS for delayed death inhibitors of the malarial parasite plastid, 48 hour incubation; settings: P. falciparum luciferase growth in erythrocytes; series mostly up to 28.7 µM; activity change, negative = inhibition: at the top concentration
In short: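 Cell-based growth assay: transgenic P. falciparum expressing firefly luciferase, cultured in red cells within RPMI 1640 containing 0.5% w/v Albumax, 24 mM bicarbonate and gentamycin. A drop in luciferase activity indicates inhibition.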
% is set by controls: 0 for no effect and ±100 for the full control effect; potency is the fitted concentration of half-maximal effect; tags give direction and shape of the fitted curve.

Compound | activity change, negative = inhibition | Potency
Cc1ccc(/C=N/c2sc3c(c2C#N)CCCCC3)o1 | inactive: 21.8% | –
COc1ccc(CNC(=O)/C(C#N)=C/c2cccc(OC)c2OC)cc1 | – | inconclusive [inhibitor, partial curve]
CC1CCN(c2nc(-c3ccc(F)cc3)cc(C(F)(F)F)n2)CC1 | – | inconclusive [inhibitor, single point]
CCN(CC)C(=O)c1ccc(-c2nnc(Nc3ccc(C(=O)NC)cc3)c3ccccc23)cc1 | inactive: -60.7% | –
CCOc1cc(NC(=O)C2CCCCC2)c(OCC)cc1NC(=O)c1ccccn1 | – | inconclusive [inhibitor, partial curve]
COc1ccc(OC)c(S(=O)(=O)NC2CC(=O)N(c3ccc(C)c(C)c3)C2)c1 (stereo not given) | – | inconclusive [inhibitor, partial curve, poor fit]
CCc1ccc(NC(=O)NC2CCCCCCC2)cc1 | inactive: 109% | –
COc1ccccc1NC1CCCCC1NS(=O)(=O)c1ccc(C)cc1 (stereo not given) | – | inconclusive [inhibitor, partial curve, poor fit]
Cc1ccc(OCCSc2nc(NC(C)C)nc(NC(C)C)n2)cc1 | – | inconclusive [inhibitor, single point]
CC1CC(C)(C)NC(=S)N1CCCC(=O)N1CCN(c2ccccc2F)CC1 (stereo not given) | – | inconclusive [inhibitor, partial curve, poor fit]
O=c1oc2ccccc2n1CSC1=NCCS1 | – | inconclusive [inhibitor, single point]
O=C(Nc1ccc(-n2ccc(C(F)(F)F)n2)cc1)Nc1cccc(Cl)c1 | – | inconclusive [inhibitor, partial curve, poor fit]
CCOC(=O)Cc1csc(NC(=O)c2c(-c3c(Cl)cccc3Cl)noc2C)n1 | – | inconclusive [inhibitor, single point]
CCN(CC)S(=O)(=O)c1ccc(N2CCN(c3ccccc3OC)CC2)c(N)c1 | – | inconclusive [inhibitor, full curve]
O=S(=O)(c1ccc(Cl)cc1)N1CCC(c2nc3ccccc3[nH]2)CC1 | – | inconclusive [inhibitor, single point]
Cc1ccc(C(=O)NCc2ccc3c(c2)OCO3)cc1 | inactive: -1.45% | –
CCCNC(=O)c1ccc(N2CCC3(CC2)CC(c2cccc(Br)c2)=NO3)c(NC(=O)c2ccc(Br)cc2)c1 | – | inconclusive [inhibitor, single point]
O=C(Nc1cccc(S(=O)(=O)N2CCCC2)c1)c1ccc2ccccc2n1 | – | inconclusive [inhibitor, single point]
COc1ccc(S(=O)(=O)NC(C(=O)NCCc2ccccn2)C(C)C)cc1 (stereo not given) | inactive: 0.582% | –
CC(C)c1ccc(CN2CCSCC2)cc1 | inactive: 20.8% | –
C[C@H]1CCC[C@H](O)CCCCCc2cc(O)cc(O)c2C(=O)O1 | – | inconclusive [inhibitor, single point]
COc1cccc(Cn2cc(/C=N/NC(=O)c3cc(O)cc(O)c3)c3ccccc32)c1 | – | inconclusive [inhibitor, single point]
Cc1ccc(NS(=O)(=O)c2ccc(CCC(=O)N3CCOCC3)cc2)cc1 | – | inconclusive [inhibitor, partial curve]

Compound | activity change, negative = inhibition | Potency
NC(Cc1cc(O)c(O)cc1O)C(=O)O (stereo not given) | inactive: -0.298% | –
CN(C)C(=O)N1CCC(C(=O)N2CCCC(C(=O)c3cccc4ccccc34)C2)CC1 (stereo not given) | – | inconclusive [inhibitor, single point]
COC(=O)c1cc(S(=O)(=O)NCc2cccc(Br)c2)c[nH]1 | inactive: 8.9% | –
O=C1CC[C@@H](CN(Cc2ccccc2)Cc2cn[nH]c2-c2cc3ccccc3o2)N1 | – | inconclusive [inhibitor, single point]
N#Cc1c(-c2ccccc2)c(-c2ccccc2)nn(CC(=O)NNC(=O)Nc2ccc(Cl)c(Cl)c2)c1=O | inactive: 3.64% | –
COc1ccc(-c2cc(C)no2)cc1S(=O)(=O)N1CCOc2ccccc21 | – | inconclusive [inhibitor, partial curve, poor fit]
N#Cc1c(N)n(CCNC(=O)c2ccccc2)c2nc3ccccc3nc12 | – | inconclusive [inhibitor, partial curve]
N#Cc1ccc(-c2cccnc2)nc1SCc1ccc(Cl)cc1Cl | – | inconclusive [inhibitor, full curve]
COc1ccc(OC)c(/C=N/N(CCC#N)C2=NS(=O)(=O)c3ccccc32)c1 | inactive: -0.459% | –
O=C(c1cc([N+](=O)[O-])ccc1N1CCCCC1)N1CCc2ccccc21 | inactive: 0% | –
O=C(NC(=S)Nc1ccccc1N1CCOCC1)c1ccc(Br)cc1 | – | inconclusive [inhibitor, single point]
C/C(=N\NC(=O)c1ccc(O)cc1)c1ccc(NC(=O)Cc2ccccc2)cc1 | inactive: 20.6% | –
CCc1nonc1NC(=O)c1oc2cc(Br)ccc2c1C | – | active: 9.28 µM
Cn1c(SCc2ccccc2)nnc1-c1ccco1 | inactive: -2.81% | –
CCCOc1ccc(C(=O)NCCN2CCOCC2)cc1 | inactive: 32% | –
CCC(C)(C)n1nnnc1CN1CCN(c2ccc(OC)cc2)CC1 | inactive: 26.7% | –
CCOc1ccccc1-n1nnnc1SC(C)C(=O)OC (stereo not given) | inactive: 13.4% | –
c1ccc(-c2csc3ncnc(NCCN4CCOCC4)c23)cc1 | – | inconclusive [inhibitor, partial curve, poor fit]
CCn1c(/C=C/c2ccc(F)cc2)nc2ccccc2c1=O | – | inconclusive [inhibitor, partial curve, poor fit]
Cc1ccc(CN(Cc2ccco2)C(=S)Nc2ccccc2C)cc1 | – | inconclusive [inhibitor, partial curve]
COc1ccc(-n2cc(CNCc3cnc4ccccn34)c(-c3cccc(F)c3)n2)cc1 | – | inconclusive [inhibitor, partial curve, poor fit]
O=C(NC12CC3CC(CC(C3)C1)C2)c1ccc(-c2ccc(Br)cc2)o1 | – | inconclusive [inhibitor, single point]
